# Test results: PMC6919601, “Identification of Plasmodium dipeptidyl aminopeptidase allosteric inhibitors by high throughput screening” (PLoS ONE, 2019)
# Among all 110,000 compounds or so, about 230 (0.21%) showed an effect of 50% or more. The list shows a part of the results.
# Target: DPAP1 (Plasmodium falciparum, UniProt Q8IIJ9)
# Assay: primary screen, percent inhibition; read by cleavage of a fluorogenic dipeptide substrate; higher = more effect of the substance
# Parameters: species or system P. falciparum D10 trophozoite lysates; single well
# 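Further: 30 min substrate incubation versus DMSO and 10 µM JCP410 controls.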
# DPAP1, sequence (Q8IIJ9 whole entry, looked up): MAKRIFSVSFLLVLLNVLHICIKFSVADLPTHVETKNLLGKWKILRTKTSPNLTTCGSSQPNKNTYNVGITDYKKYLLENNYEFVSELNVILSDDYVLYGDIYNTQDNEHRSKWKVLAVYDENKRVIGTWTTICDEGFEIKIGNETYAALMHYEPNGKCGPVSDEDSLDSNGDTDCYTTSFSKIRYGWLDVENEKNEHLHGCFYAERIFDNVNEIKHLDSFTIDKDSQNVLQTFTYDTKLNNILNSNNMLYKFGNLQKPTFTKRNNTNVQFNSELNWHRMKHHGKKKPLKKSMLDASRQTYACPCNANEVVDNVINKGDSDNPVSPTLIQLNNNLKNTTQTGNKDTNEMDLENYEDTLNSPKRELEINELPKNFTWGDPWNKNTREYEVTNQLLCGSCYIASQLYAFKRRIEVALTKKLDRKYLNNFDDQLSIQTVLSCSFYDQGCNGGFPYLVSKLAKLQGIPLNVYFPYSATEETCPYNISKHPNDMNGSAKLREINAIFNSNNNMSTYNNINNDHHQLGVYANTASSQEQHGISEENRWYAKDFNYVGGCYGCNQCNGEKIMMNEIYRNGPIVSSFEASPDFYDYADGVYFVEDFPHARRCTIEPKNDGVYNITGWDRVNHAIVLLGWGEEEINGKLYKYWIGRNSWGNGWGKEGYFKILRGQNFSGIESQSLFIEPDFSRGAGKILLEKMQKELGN
row,SMILES,% Inhibition @ 10 uM
1,CCNC(=O)/C(=C\c1ccc(OC)cc1)NC(=O)c1ccccc1,-6.38%
2,CSc1ncc(Cl)c(C(=O)N(Cc2ccccc2)c2ccccn2)n1,-1.35%
3,CSc1ncc(C(=O)NCCc2c[nH]c3ccccc23)c(-c2ccccc2)n1,-2.48%
4,Cc1ccc(Cl)cc1NC(=O)c1ccc([N+](=O)[O-])c(C)c1,-0.546%
5,CC(=O)N[C@@H](CC(C)C)C(=O)N[C@H]1CCN(C(=O)[C@H](CC(C)C)NC(=O)c2ccc(-c3cnc(Nc4ccncc4)s3)cc2)C1,17%
6,O=C1c2ccccc2C(=O)N1CCc1ccccc1,-5.84%
7,CCCC(=O)Nc1nc2nc(CCC)cc(O)n2n1,2.05%
8,c1cc2nncn2nc1N1CCOCC1,-0.692%
9,CCCSc1nc2c(c(=O)n(C)c(=O)n2C)n1Cc1ccccc1,2.46%
10,COc1ccc2oc(-c3ccccc3)c(C(=O)N(C)C)c2c1,1.37%
11,O=C(/C=C/c1ccc(-c2ccc(Cl)cc2)o1)N1CCCCC1,5.35%
12,CC(=O)Nc1ccc(-c2cnc(-c3ccc(NC(C)=O)cc3)nc2)cc1,1.63%
13,CCCCn1c(C)c2cc(OC)c(OC)cc2cc1=O,-0.13%
14,O=C(O)C1CCCN1Cc1c[nH]c2ccccc12 (stereo not shown),0.472%
15,Cc1ccccc1/N=c1\scc(-c2ccccc2)n1CCCN1CCOCC1,6.1%
16,COc1ccc(-c2cc(=O)c3ccccc3o2)cc1OC,0.635%
17,Cc1nn(C)cc1CNC(=O)c1cccc(F)c1,2.8%
18,O=S(=O)(NCc1ccccc1)c1ccc2[nH]c(O)nc2c1,0.0289%
19,CCOC(=O)c1nonc1NC(C)=O,3.39%
20,COc1ccccc1-c1cc(N)[nH]n1,-3.06%
21,Cc1ccc(NC(=O)C(C)Sc2nc(N)cc(N)n2)c(C)c1 (stereo not shown),-5.13%
22,O=C(Nc1nnc(Cc2ccccc2)s1)c1ccco1,11.8%

row,SMILES,% Inhibition @ 10 uM
1,O=C(c1cc(-c2ccc(Cl)c(Cl)c2)on1)N1CCOCC1,-7.15%
2,O=C(NC1CCCCCCC1)c1ccc2c(c1)OCO2,-4.38%
3,COc1cccc(NC(=O)c2ccc3c(c2)OCO3)c1,4.32%
4,O=C1NC(=S)S/C1=C/c1ccc(O)cc1,-0.807%
5,Cc1ccc(S(=O)(=O)c2nc(S(C)(=O)=O)sc2N2CC(C)OC(C)C2)cc1 (stereo not shown),1.15%
6,Cc1cccc(Oc2cc(-n3ncc4c3CCCC4=O)ncn2)c1,-3.94%
7,CC(=O)NS(=O)(=O)c1ccc(NC(=O)CCc2ccccc2)cc1,-3.47%
8,O=C(COc1ccc(Cl)cc1Cl)N1CCN(c2ccc([N+](=O)[O-])cc2)CC1,7.55%
9,COc1cc2c(cc1OC)C(COc1ccc(F)cc1)N(C(C)=O)CC2 (stereo not shown),1.42%
10,O=C(NCc1nnc(SCC(=O)N2CCOCC2)o1)c1cccs1,0.163%
11,C=Cc1ccccc1CN1CCOCC1,-3.66%
12,CCCOc1ccc(NC(=O)c2ccc(OC)cc2)cc1,-1.86%
13,Cc1ccc([S+](O)Nc2cccc(Cl)c2)cc1 (stereo not shown),3.65%
14,CCOc1ccc(C2(C)C(=O)N(CN3CCOCC3)C(=O)N2CN2CCOCC2)cc1 (stereo not shown),-2.15%
15,Cc1ccc(-c2cn3nc(N4CCC(C(=O)NCc5ccccc5C)CC4)sc3n2)cc1,2.72%
16,CCCCSc1nc(O)c(CC)c(=O)n1-c1ccccc1,-1.22%
17,O=C1NC(=O)/C(=C\c2ccc(O)c(Cl)c2)N1,1.31%
18,COc1ccc(S(=O)(=O)N2CCN(C)CC2)c(C)c1,0.484%
19,CCOc1ccc2nc(NC(=O)C3(S(=O)(=O)c4ccc(C)cc4)CC3)sc2c1,-2.56%
20,CC1CCCC(NS(=O)(=O)c2cc(Br)cnc2N)C1C (stereo not shown),2.32%
21,Cc1nc(-c2ccc(NS(=O)(=O)c3ccc4c5c(cccc35)CC4)cc2)cs1,-2.03%
22,CCOC(=O)c1cnn(-c2ccccc2)c1C,-3.06%

row,SMILES,% Inhibition @ 10 uM
1,CC(=O)c1ccc(N2CCN(Cc3cccc4ccccc34)CC2)cc1,4.22%
2,C=CCn1c(SCC(=O)N2CCCCC2)nc(=O)c(CC)c1O,-1.41%
3,Cc1cc(Cl)nc(Cl)c1C(=O)NC(=O)NCCC(C)C,0.919%
4,Cc1ccc(CN2C3CCCC2CC(NC(=O)C2CC2)C3)cc1 (stereo not shown),-1.07%
5,C=CC1CN2CCC1CC2C12Nc3ccccc3C1(O)CCO2 (stereo not shown),-2.17%
6,O=C(Cc1ccccc1)NCc1ccncc1,1.63%
7,CCN(CC)C(=O)C1CCCN(Cc2cc(C)ccc2C)C1 (stereo not shown),0.605%
8,Cc1onc(-c2ccccc2)c1C(=O)Nc1ccc(S(=O)(=O)N2CCC(C)CC2)cc1,-1.63%
9,Cc1cccc2c(O)c(NC(=O)NCc3ccc(F)cc3)cnc12,-1.31%
10,CC(=O)Nc1nc(C23CC4CC(CC(C4)C2)C3)cs1,-0.712%
11,O=C(O)c1ccc(OCC(O)Cn2c(Cc3ccccc3)nc3ccccc32)cc1 (stereo not shown),-3.01%
12,COc1ccc(OC)c(/C=C2\SC(Nc3ccc(Br)cc3)=NC2=O)c1,0.24%
13,Cc1c(C(=O)Nc2ccc(Br)cc2)cccc1[N+](=O)[O-],-0.856%
14,O=C(Nc1ccncc1)C1(c2ccccc2)CCCC1,-5.9%
15,COc1ccc(-c2cc(-c3ccccc3)nc3sc(C#N)c(N)c23)cc1,2.03%
16,CCc1cc(O)n2nc(C)c(-c3ccccc3OC)c2n1,3.25%
17,COc1ccc(Cl)cc1-c1nc(/C=N/c2cc(C)ccn2)c(O)o1,8.98%
18,CCOC(=O)c1c(NC(=O)CN2CCCCCC2)sc2c1CCCC2=O,-4.21%
19,Cc1ccc(C(=O)n2nc(-c3cccnc3)nc2NCc2ccc(F)cc2)cc1,3.81%
20,CCCC1=C(C(=O)OCC)C2(C(=O)Nc3ccccc32)C(C(=O)OC(C)(C)C)=C(N)O1 (stereo not shown),2%
21,Cn1nc(-c2ccc(C(=O)NCCN3CCOCC3)cc2)c2ccccc2c1=O,0.315%
22,O=C(CCN1C(=O)c2ccccc2C1=O)NCc1ccccc1Cl,-1.99%

row,SMILES,% Inhibition @ 10 uM
1,Oc1[nH]c2ccccc2c1/C=N/Cc1ccco1,4.55%
2,CCN1CCN(c2nc3c(c(=O)[nH]c(=O)n3C)n2CC(O)COC(C)C)CC1 (stereo not shown),2.31%
3,c1ccc(CCNC2CCN(Cc3ccccc3)CC2)cc1,0.472%
4,O=C(NCCC1=CCCCC1)c1cc(S(=O)(=O)N2CCCCC2)c[nH]1,-4.99%
5,NC(=O)CC(N)C(=O)O (stereo not shown),3.66%
6,Cc1csc(NC(=O)Cn2cc(S(=O)(=O)N3CCCC3)c(S(=O)(=O)N3CCCC3)c2)n1,3.2%
7,Cc1sc(NC(=O)Cc2ccc(Cl)cc2)c(C(N)=O)c1C,12.6%
8,Cn1c(=O)c2c(ncn2Cc2ccc(C(C)(C)C)cc2)n(C)c1=O,2.22%
9,N#CC1=C2SCC(O)(c3ccco3)N2C(=O)CC1c1ccccc1F (stereo not shown),-1.74%
10,CCOc1ccc(CNc2nc3nc(-c4ccccc4)cc(O)n3n2)cc1,-2.4%
11,O=C(/C(=C/c1ccc(Cl)cc1)c1nc2ccccc2[nH]1)c1ccccc1,-1.59%
12,Cc1ccc(S(=O)(=O)Nc2ncccn2)cc1,4.3%
13,NC(=O)CSc1nccn1Cc1ccccc1,1.64%
14,COCC(C)Nc1ncnc2c1c(-c1ccccc1)cn2-c1ccc(F)cc1 (stereo not shown),8.34%
15,COc1ccccc1Cn1c(C(C)O)nc2ccccc21 (stereo not shown),-3.16%
16,Cc1cc(C)c(C(=O)CC(N2CCCCC2)C(F)(F)F)c(O)n1 (stereo not shown),-2.92%
17,CCN1CCN(c2nc3c(c(=O)[nH]c(=O)n3C)n2CC(O)c2ccccc2)CC1 (stereo not shown),2.31%
18,CC1=NNC(=O)C1CCc1ccncc1 (stereo not shown),-3.53%
19,CC1CCN(CCOCCOc2ccccc2F)CC1,-1.51%
20,O=C(O)c1ccc(-n2c(S)nnc2Cn2ncc3ccccc3c2=O)cc1,-1.11%
21,CCOc1ccc(-c2cc(C(=O)OC)nc3c2c(=O)n(C)c(=O)n3C)cc1,-4.07%
22,CSc1ccc(CNC2=NS(=O)(=O)C(c3ccc(C(C)C)cc3)=C2C)cc1,-2.85%

row,SMILES,% Inhibition @ 10 uM
1,N=C(NOC(=O)c1ccc2nsnc2c1)c1ncon1,-3.53%
2,CCc1ccc(CNC2=NS(=O)(=O)C(c3ccc(C(C)C)cc3)=C2C)cc1,2.27%
3,Cc1cc(O)c(C2=Nc3ccccc3SC(c3cccs3)C2)c(=O)o1 (stereo not shown),4.57%
4,CCOc1ccc(C(=O)Nc2nc3c(C)cccc3s2)cc1,-5.41%
5,CCCCC(NC(=O)CCN1C(=O)c2ccccc2C1=O)c1ccccc1 (stereo not shown),-10.7%
6,Oc1cc(O)c(-c2cc3ccccc3o2)cc1O,-3.09%
7,CCc1ccc(OCC(=O)Nc2cc(OC)ccc2OC)c(Br)c1,-0.312%
8,COc1ccc(-c2noc(CN(C(=O)Cc3ccc(-c4ccccc4)cc3)C(C)C)n2)cc1,-2.79%
9,Cc1ccc(OCCCCc2c(C)n[nH]c2C)c(C)c1,-4.01%
10,COc1ccccc1N(CC(=O)NCc1ccncc1)S(=O)(=O)c1ccc(C)cc1,-2.28%
11,CCOc1ccc(-c2csc(/C(C#N)=C\c3ccc(C(C)C)cc3)n2)cc1,2.22%
12,CCOc1ccc(S(=O)(=O)NCc2ccccn2)cc1C,-5.4%
13,O=C(O)C1CCN(S(=O)(=O)c2ccccc2Cl)CC1,-1.31%
14,CCc1nnc(NC(=O)Cc2ccc(Cl)cc2)s1,1.37%
15,COc1ccc2c3c(cccc13)C(=O)N(C)C2=O,-2.03%
16,COc1ccc(C(=O)NC(C)c2ccccc2)cc1OC (stereo not shown),0.467%
17,Cc1ccc(NC(=O)NC2CCCCC2)c(Br)c1,2.48%
18,O=C(NCc1cccs1)C1CCC(CNc2c(N3CCCCC3)c(=O)c2=O)CC1 (stereo not shown),2.84%
